Laboratory results: paper PMC4336329 (PLoS ONE, 2015)
Screen size: about 310,000 compounds; about 2,200 (0.71%) showed an effect of 50% or more. Effects have a minus sign here. This is one part of the list.

What follows are molecules tested against human ether-à-go-go-related gene (hERG) potassium channel (human, UniProt Q12809) (assay: primary screen, population patch clamp on CHO cells stably expressing hERG).
Sequence of human ether-à-go-go-related gene (hERG) potassium channel (Q12809 whole entry, looked up): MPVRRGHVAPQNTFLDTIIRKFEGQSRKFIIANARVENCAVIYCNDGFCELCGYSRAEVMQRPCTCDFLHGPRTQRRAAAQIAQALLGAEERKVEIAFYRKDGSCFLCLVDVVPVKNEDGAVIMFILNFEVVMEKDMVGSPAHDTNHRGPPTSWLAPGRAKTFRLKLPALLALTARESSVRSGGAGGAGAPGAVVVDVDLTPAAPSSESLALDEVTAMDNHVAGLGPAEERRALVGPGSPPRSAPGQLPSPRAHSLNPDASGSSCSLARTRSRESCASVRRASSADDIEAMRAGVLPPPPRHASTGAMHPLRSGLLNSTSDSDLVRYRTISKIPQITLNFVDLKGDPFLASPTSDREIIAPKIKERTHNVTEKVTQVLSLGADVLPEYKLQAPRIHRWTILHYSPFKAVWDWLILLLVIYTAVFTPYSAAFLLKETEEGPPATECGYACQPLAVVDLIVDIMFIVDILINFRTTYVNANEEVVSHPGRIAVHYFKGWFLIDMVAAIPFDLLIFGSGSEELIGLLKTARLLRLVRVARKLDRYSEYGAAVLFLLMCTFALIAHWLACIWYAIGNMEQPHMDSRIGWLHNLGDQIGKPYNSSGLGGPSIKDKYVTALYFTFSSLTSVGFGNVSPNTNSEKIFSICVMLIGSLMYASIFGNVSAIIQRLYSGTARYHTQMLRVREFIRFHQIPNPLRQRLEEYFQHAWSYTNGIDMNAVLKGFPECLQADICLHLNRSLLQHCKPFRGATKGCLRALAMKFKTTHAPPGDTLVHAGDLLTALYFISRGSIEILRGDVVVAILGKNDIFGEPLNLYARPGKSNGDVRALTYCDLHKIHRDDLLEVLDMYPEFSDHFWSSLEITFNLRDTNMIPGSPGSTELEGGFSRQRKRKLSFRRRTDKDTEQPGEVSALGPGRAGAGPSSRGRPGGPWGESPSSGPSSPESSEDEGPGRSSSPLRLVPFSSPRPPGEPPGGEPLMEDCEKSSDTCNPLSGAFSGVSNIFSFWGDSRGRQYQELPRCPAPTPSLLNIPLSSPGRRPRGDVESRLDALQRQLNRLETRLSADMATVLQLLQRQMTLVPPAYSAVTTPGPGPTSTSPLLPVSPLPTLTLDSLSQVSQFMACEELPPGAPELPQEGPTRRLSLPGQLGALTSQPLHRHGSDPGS

Compound	hERG current change (%, negative = inhibition) at 1uM [%]
O=C(COC(=O)c1ccccc1Cl)NCCC1=CCCCC1	9.59
COc1ccc(C(=O)NN=C2CCCC2)cc1	3.9
O=C(O)C1CCCCN1C(=O)c1cc2c(s1)CCCCC2 (stereo not shown)	4.32
CN1CCN(C(=O)C2CC(c3c(F)cccc3Cl)=NO2)CC1 (stereo not shown)	7.33
COc1ccc(N2CCN(CC(=O)NC(C)c3ccccc3)CC2)cc1 (stereo not shown)	21.1
Cc1cc(C)c(C)c(OCCNCc2ccccc2)c1.O=C(O)C(=O)O	9.09
CC(=O)N1CCC2(CC1)C(C#N)=C(N)OC1=C2C(=O)CC(C)(C)C1	13.8
Cc1occc1C(=O)Nc1ccc2ccccc2c1	15.4
Cc1onc(-c2ccccc2)c1C(=O)c1c[nH]c(C(=O)NCCCN2CCOCC2)c1	9.35
COc1ccc(N2CCN(C(c3ccc4ncccc4c3)c3nnnn3C(C)C)CC2)cc1 (stereo not shown)	-11.9
COc1ccc(C(=O)Nc2nnc(C(F)(F)F)s2)cc1	58.1
Cn1c(=O)c2c(nc(CN3CCN(Cc4ccccc4)CC3)n2Cc2ccc(Cl)cc2)n(C)c1=O	-31.1
COc1ccc(-c2noc(-c3ccccc3-c3ccccc3)n2)cc1	2.9
Nc1nc(SCC(=O)Nc2ccc(F)cc2)[nH]c(=O)c1NC(=O)c1ccc(F)c(F)c1	10.7
COc1ccc(-n2cnc3scc(-c4ccc(OC)c(OC)c4)c3c2=O)cc1	9.03
O=c1cc(-c2cccc(Br)c2)nc(-c2ccccc2F)o1	15.6
O=C(OCc1cccs1)c1ccccc1NS(=O)(=O)c1ccc2c(c1)OCCO2	14.3
O=C(Nn1c(O)c(C=C2N=c3ccccc3=N2)sc1=S)c1ccccc1Cl	0.388
O=S(=O)(NCc1ccccc1)c1ccccc1Br	3.62
NS(=O)(=O)c1ccc(NC(=O)CSc2ncccn2)cc1	6.98
Nc1c(N2CCN(c3ccccc3)CC2)c2ccccc2oc1=O	1.19
COc1cccc(CN2C(=O)CN(C3CCCCC3)C(=O)C2c2ccc(F)cc2)c1 (stereo not shown)	-8.37
O=C(N[C@H](C(=O)O)c1ccccc1)C1CCC(Cn2nnc3ccccc3c2=O)CC1 (stereo partly shown)	-8.07
Cc1ccc(/C=C/C(=O)NC(C)c2ccccc2)cc1 (stereo not shown)	7.75
CC(=O)Nc1ccc(NC(=O)COC(=O)c2c(C)nn(-c3ccccc3)c2C)cc1	11.9
